Source: PMC4336329 (PLoS ONE, 2015)
The whole screen tested about 310,000 compounds, of which about 2,200 (0.71%) showed an effect of 50% or more. Effects have a minus sign here. This is one part of the list.

Each compound was assayed against human ether-à-go-go-related gene (hERG) potassium channel (human, UniProt Q12809) (assay: primary screen, population patch clamp on CHO cells stably expressing hERG).
human ether-à-go-go-related gene (hERG) potassium channel, sequence (Q12809 whole entry, looked up): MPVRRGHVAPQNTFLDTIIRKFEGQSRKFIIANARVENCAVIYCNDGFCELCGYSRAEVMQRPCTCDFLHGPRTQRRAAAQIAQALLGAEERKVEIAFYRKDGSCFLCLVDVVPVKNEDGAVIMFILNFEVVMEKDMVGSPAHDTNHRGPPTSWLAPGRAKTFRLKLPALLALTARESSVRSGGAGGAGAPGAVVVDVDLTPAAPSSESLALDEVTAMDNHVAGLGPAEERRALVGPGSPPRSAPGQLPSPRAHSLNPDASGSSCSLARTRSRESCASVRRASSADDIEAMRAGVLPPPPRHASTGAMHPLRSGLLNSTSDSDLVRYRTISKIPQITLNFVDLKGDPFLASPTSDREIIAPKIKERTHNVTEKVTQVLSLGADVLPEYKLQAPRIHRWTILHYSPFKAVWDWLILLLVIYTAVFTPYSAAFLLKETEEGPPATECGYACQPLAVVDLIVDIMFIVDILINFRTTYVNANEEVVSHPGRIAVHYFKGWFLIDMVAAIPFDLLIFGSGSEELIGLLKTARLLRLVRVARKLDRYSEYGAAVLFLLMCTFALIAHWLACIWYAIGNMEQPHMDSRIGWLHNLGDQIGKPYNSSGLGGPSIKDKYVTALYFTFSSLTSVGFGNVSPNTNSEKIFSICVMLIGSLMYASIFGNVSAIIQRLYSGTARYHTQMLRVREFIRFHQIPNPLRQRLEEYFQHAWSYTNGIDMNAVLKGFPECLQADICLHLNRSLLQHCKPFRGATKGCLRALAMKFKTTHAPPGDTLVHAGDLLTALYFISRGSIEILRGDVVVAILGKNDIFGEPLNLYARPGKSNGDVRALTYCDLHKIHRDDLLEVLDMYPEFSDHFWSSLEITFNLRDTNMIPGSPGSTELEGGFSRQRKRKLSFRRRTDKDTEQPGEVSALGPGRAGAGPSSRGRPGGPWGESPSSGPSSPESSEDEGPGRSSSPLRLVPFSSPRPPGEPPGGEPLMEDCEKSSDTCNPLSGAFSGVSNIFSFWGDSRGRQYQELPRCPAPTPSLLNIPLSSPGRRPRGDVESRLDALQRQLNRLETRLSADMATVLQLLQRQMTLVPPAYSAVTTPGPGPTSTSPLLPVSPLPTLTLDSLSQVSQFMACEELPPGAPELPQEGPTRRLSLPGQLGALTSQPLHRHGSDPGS

Row | SMILES | hERG current change (%, negative = inhibition) at 1uM [%]
1 | COc1ccc(/C=C2/C(=O)OCc3cc(OC)c(OC)cc32)c(OC)c1 | 8.09
2 | Cc1cc(C(=O)Nc2nnc(C(F)(F)F)s2)no1 | 9.42
3 | COc1ccc(C(=O)c2cc3cccc(OC)c3o2)cc1 | 10.5
4 | COc1ccc(C(=O)N/N=C/C(Br)=C/c2ccccc2)cc1 | 9.03
5 | CN(C)/C=N/c1ncn(-c2ncc(C(F)(F)F)cc2Cl)n1 | 9.9
6 | Cc1ccc(-n2c(N)c(C#N)c(-c3ccc(Cl)cc3)c(C#N)c2=O)cc1 | 10.8
7 | COc1cc(C(=O)OC2CC3CCC2(C)C3(C)C)ccc1OC(C)=O (centres unmarked) | 14.3
8 | COc1ccc(N2CC(O)=C(c3nc(C)cs3)C2=N)cc1 | 11.3
9 | COc1ccc2nc(N3C(=O)CC(Cc4cc(C)cc(C)c4)C3=O)sc2c1 (centres unmarked) | 17.6
10 | Cc1nn(CC(=O)c2ccc(Cl)cc2Cl)c(C)[n+]1N.[Br-] | 9.78
11 | Cn1c(=O)c2c(nc(N/N=C/c3cccnc3)n2Cc2ccccc2)n(C)c1=O | -11.3
12 | CCOC(=O)c1ccc2c(c1)nc(SC(C)C(=O)NCC1CCCO1)n2CC (centres unmarked) | -7.17
13 | C[C@@H]1O[C@@H](O[C@@H]2C=C3CC[C@@H]4C(CC[C@]5(C)[C@@H](c6ccc(=O)oc6)CC[C@]45O)[C@@]3(C)CC2)[C@H](O)[C@H](O)[C@H]1O (some centres unmarked) | 10.8
14 | Cc1ccc(/C=N/N2CCN(Cc3ccccc3)CC2)o1.Cl | 12.4
15 | O=c1onc(-c2ccccc2)n1-c1cc(Cl)cc(Cl)c1 | 0.961
16 | O=C(NCCOc1cccnc1)c1ccc(OC2CCN(Cc3ccccn3)CC2)cc1 | 8.2
17 | Cc1ccc(C(=O)C(OC(=O)CNC(=O)c2ccc(Cl)cc2)c2ccccc2)cc1 (centres unmarked) | -0.769
18 | COc1ccc(/C=N/NC(=O)CC#N)cc1Oc1nc(Cl)ncc1F | 12.5
19 | CCCOc1ccc(Cc2c(O)nc(N)[nH]c2=O)cc1C | 11.6
20 | O=C(N/N=C/c1c(O)n(CCc2ccc(F)cc2)c(=O)[nH]c1=O)c1ccncc1 | 6.08
21 | CC(=O)NC(CC(=O)Nc1nc(-c2ccc(N(C)S(C)(=O)=O)cc2)cs1)c1ccccc1 (centres unmarked) | 14.5
22 | CC1=CN2C(=N)/C(=C/c3ccc([N+](=O)[O-])o3)C(=O)N=C2S1 | 15

Row | SMILES | hERG current change (%, negative = inhibition) at 1uM [%]
23 | CCOC(=O)CN1C(=O)N[C@@H](c2ccccc2)[C@H](C(C)=O)[C@H]1C | 11.7
24 | CN(CC(=O)Nc1ccc(Cl)c(S(=O)(=O)N2CCOCC2)c1)C(=O)c1cccs1 | 0.724
25 | CCC(C)[C@H](NC(=O)NCc1ccc(F)cc1)C(=O)O (some centres unmarked) | 8.27
26 | O=C1CC(N2CCN(C/C=C/c3ccccc3)CC2)C(=O)N1CCc1ccccc1 (centres unmarked) | -4.01
27 | C/C(Cn1nnc([N+](=O)[O-])n1)=N\NC(=O)c1ccccc1O | 12.7
28 | Cc1cc(NC(=O)COC(=O)c2cccc(O)c2)no1 | 7.72
29 | CCOC(=O)C(NCc1ccc(OC)cc1)(NC(C)=O)C(F)(F)F (centres unmarked) | -2.26
30 | Cc1c(Cl)c(=O)oc2cc(OC(C)C)ccc12 | 4.27
31 | Cc1cc(=O)oc(C)c1C(=O)N[C@@H](Cc1ccccc1)C(=O)O | 13.1
32 | CCOC(=O)N1CCN(C(=O)c2cc(COc3ccc4ncccc4c3)on2)CC1 | 5.66
33 | Cc1ccc(OCC(=O)Nc2ccc(O)c(C(=O)O)c2)cc1C | 11.3
34 | Cc1ccc(C(=O)NNC(=O)CNc2cccc(Cl)c2)cc1 | 11.7
35 | CCOc1ccccc1NC(=S)NC(=O)C1CCCCC1 | 13.1
36 | CCOc1cc(C2Nc3ccccc3C(=O)N2c2ccccc2)ccc1O (centres unmarked) | 15
37 | Cc1ccc(CSc2sc(C(=O)c3ccccc3)c(N)c2C#N)cc1 | -1.05
38 | CCOC(=O)c1c(C)[nH]c(C(=O)OCC(=O)N2CCCC2=O)c1C | 2.87
39 | O=C(CCC(=O)NNc1nc2ccccc2c2nc(-c3ccccc3)nn12)NCCCN1CCOCC1 | 6.29
40 | CCn1cc(C(=O)NCCN(C)C)c(=O)c2cc(F)c(N3CCN(C)CC3)cc21.Cl | 2.03
41 | CN1CCc2nc3ccc(F)cc3c(C(N)=O)c2C1.Cl | 3.55
42 | O=C(CCN1CCOCC1)NNC(=S)NC(=O)c1ccccc1 | 18.2
43 | Cc1ccc(OCCCC(=O)Nc2ccc(S(=O)(=O)Nc3ccccn3)cc2)cc1 | 6.87
44 | O=C(Nc1cc(=O)c2ccccc2o1)N1CCCCC1 | 11.5

Row | SMILES | hERG current change (%, negative = inhibition) at 1uM [%]
45 | COc1cc2c(cc1OC)CN(C(=O)c1ccc(-c3ccccc3)cc1)CC2 | 9.14
46 | CCN1CCN(c2cc(N3CCCC3)c(F)cc2[N+](=O)[O-])CC1 | 0.416
47 | O=C(CP(=O)(c1ccccc1)c1ccccc1)N1CCCCC1 | 6.28
48 | COc1cccc(N2CCN(Cc3nnnn3C3CCCCC3)CC2)c1 | 16.1
49 | CN(CC(=O)Nc1ccc(F)cc1)C(=O)CN1C(=O)NC2(CCCc3ccccc32)C1=O (centres unmarked) | 8.93
50 | COc1ccc(NC(=O)CSCC(=O)N(C)Cc2ccc3c(c2)OCCO3)cc1 | 8.7
51 | CC1CCCCN1CCNC(=O)c1ccc2c(c1)N(Cc1ccccc1)C(=O)c1ccccc1S2(=O)=O (centres unmarked) | 7.47
52 | Cc1cccc(OCCSc2cc(C)nc(N)n2)c1 | 0.701
53 | Cc1ccc([C@@H]2[C@@H]3C(=O)N(c4ccccc4)C(=O)[C@@H]3[C@]3(C)C(=O)N(CC4CC4)CC(=O)N23)o1 | 4.73
54 | O=C(O)CCNS(=O)(=O)c1ccc2c(c1)OCCCO2 | 14.8
55 | CN1C(=S)SC(/[N+]([O-])=C\c2cccs2)C1(C)C (centres unmarked) | 8.56
56 | CCN(CC)c1ccc(/C=C(\C#N)C(=O)NCc2ccco2)cc1 | 7.5
57 | CN(c1ccccc1)c1ccc(/C=C/[N+](=O)[O-])cc1 | 14.1
58 | Cc1cc(C)c(NC(=O)CCCOC(=O)C2=COCCO2)c(C)c1 | 12.7
59 | Cc1ccn2c(NC(=O)c3ccccc3)c(-c3cccs3)nc2c1 | 13.8
60 | Cn1c(SCc2cc(=O)n3cc(Br)ccc3n2)nnc1C1COc2ccccc2O1 (centres unmarked) | -37.1
61 | COc1cccc(NC(=O)N2CCCC2C(=O)NCC(C)C)c1 (centres unmarked) | 11
62 | CCC1=C(OC(=O)N(CC)CC)N2C(=O)OC(=NCc3ccccc3)[C@]2(C)[C@H]2C1=CC[C@H]1C(=O)NC(=O)[C@H]12 | 4.75
63 | CCn1cc(NC(=O)Nc2ccccc2C(=O)OC)c(C(N)=O)n1 | 9.52
64 | CCCN1CCN(C(c2cc3cc4c(cc3[nH]c2=O)OCO4)c2nnnn2C(C)(C)C)CC1 (centres unmarked) | 4.99
65 | COC(=O)c1cc(NC(=O)CN2CCN(C(C)=O)CC2)cc(C(=O)OC)c1 | 7.76
66 | C=CCN1c2ccccc2[C@]23C[C@@H](C(=O)OC)N(C(C)=O)C2=NC(C(=O)OC)=C(C(=O)OC)[C@H]13 | -8.72

Row | SMILES | hERG current change (%, negative = inhibition) at 1uM [%]
67 | CCCCn1c(N)c(N(CCOC)C(=O)c2ccc(NC3CC3)c([N+](=O)[O-])c2)c(=O)[nH]c1=O | 13.1
68 | Cc1ccccc1CS(=O)(=O)CCC(=O)NCCN1CCN(c2cccc(Cl)c2)CC1 | -5.7
69 | Oc1ccc(O)c(/C(=N/Nc2ccccc2)c2ccccc2)c1 | 13.2
70 | CCc1nnc(NS(=O)(=O)c2ccc(NC(=O)OC)cc2)s1 | 14.7
71 | COc1ccc(-n2c(Cn3nc(C(F)(F)F)cc3C)n[nH]c2=S)cc1 | 20.9
72 | O=S(=O)(c1ccc(OC(F)(F)F)cc1)N1CCCC(N2CCOCC2)C1 (centres unmarked) | 3.2
73 | C=CCSc1n[nH]c(-c2ccc(OC)cc2)n1 | 10.5
74 | Cc1ccnc(SCC(=O)N2CCc3ccccc32)n1 | 14.4
75 | COc1cccc(C(=O)NCCS(=O)(=O)NCc2cccnc2)c1 | 3.6
76 | Cc1ccc(/C=C2/SC(=S)N(C3CCCCC3)C2=O)o1 | -5.55
77 | CN(C)C(=O)CNC(=O)CN1C(=O)NC2(CCCc3sccc32)C1=O (centres unmarked) | 1.4
78 | COc1ccc(/C=C(\NC(=O)c2ccccc2)C(=O)NNC(=O)CCN2CCOCC2)cc1 | -0.0338
79 | CC(OC(=O)c1cc[n+]([O-])cc1)C(=O)NCc1ccccc1 (centres unmarked) | 12
80 | CCN(c1ccccc1)S(=O)(=O)c1ccc(NCC2COc3ccccc3O2)nc1 (centres unmarked) | 6.64
81 | O=C(Nc1ccc(F)cc1)Nc1ccc(NC(=O)c2ccccc2O)cc1 | 12.5
82 | CCC(=O)N(Cc1cc2ccccc2[nH]c1=O)c1ccc(OC)cc1 | 1.87
83 | C1=C(CCNc2nnnn2-c2ccccc2)CCCC1 | 6.46
84 | COc1ccc(NC(=O)c2c(-c3c(Cl)cccc3Cl)noc2C)cn1 | 2.57
85 | CN(CC(=O)Nc1nc2ccccc2s1)S(=O)(=O)c1ccc(Br)cc1 | -5.56
86 | O=C1CC(c2ccccc2)Cc2nc(N3CCc4ccccc4C3)ncc21 (centres unmarked) | 6.07
